The chains are these.
B1: GPR68, Q15743 (parent)
chain: MGNITADNSSMSCTIDHTIHQTLAPVVYVTVLVVGFPANCLSLYFGYLQIKARNELGVYLCNLTVADLFYICSLPFWLQYVLQHDNWSHGDLSCQVCGILLYENIYISVGFLCCISVDRYLAVAHPFRFHQFRTLKAAVGVSVVIWAKELLTSIYFLMHEEVIEDENQHRVCFEHYPIQAWQRAINYYRFLVGFLFPICLLLASYQGILRAVRRSHGTQKSRKDQIQRLVLSTVVIFLACFLPYHVLLLVRSVWEASCDFAKGVFNAYHFSLLLTSFNCVADPVLYCFVSETTHRDLARLRGACLAFLTCSRTGRAREAYPLGAPEASGKSGAQGEEPELLTKLHPAFQTPNSPGSGGFPTGRLA

Scores whose standard error is large were omitted. Not listed are two conditions whose scores span a narrow range. Read del as a deletion of the residues named and ins as an insertion between two positions. For part of these data: The data file names ogerin without a concentration.

The variants in data set [1] derive from B1. The data set is described as follows: cAMP reporter score (Enrich2 score, wild type = 0); higher = more signal; HEK293T, FACS bins.
Variants of B1 are the subject of data set [2]. Description: surface expression score (Enrich2 score, wild type = 0); higher = more signal; HEK293T, FACS bins.

On to V96N, for which the cAMP reporter score in data set [1] (pH 5.5) was -0.681; in data set [1] (pH 6), -0.185; in data set [1] (pH 6.5, modulator: ogerin), -0.867. For the same variant, the surface expression score in data set [2] was -1.53.
Regarding V96C, the cAMP reporter score in data set [1] (pH 5.5) is -1.54; in data set [1] (pH 6), -0.613; in data set [1] (pH 6, modulator: ogerin), -1.3; in data set [1] (pH 6.5, modulator: ogerin), -2.19. The surface expression score in data set [2] is -2.18.
For the variant V96P, the cAMP reporter score in data set [1] (pH 5.5) was -1.92; in data set [1] (pH 6) it was -0.841. Besides, in data set [2], the surface expression score was -0.605.
Take V96D: the cAMP reporter score in data set [1] (pH 5.5) was -1.23; in data set [1] (pH 6, modulator: ogerin), -2.52; in data set [1] (pH 6.5, modulator: ogerin), -0.895. Moreover, the surface expression score in data set [2] is -2.02.
Regarding V96I, the cAMP reporter score in data set [1] (pH 5.5) is -0.373; in data set [1] (pH 6) it was 2.16; in data set [1] (pH 6, modulator: ogerin) it was 0.008; in data set [1] (pH 6.5, modulator: ogerin), 3.1. In addition, in data set [2], the surface expression score was 3.16.
The matching figures for V96T: -1.74, -0.332, -2.66, -2.39 and -1.89.
The matching figures for I99_L100del: -1.79, -1.31, -1.6, -1.12 and -2.15.
For D85R, in that order: -0.839, -0.939, 0.137, 0.742 and -0.204.
Take D85S: the cAMP reporter score in data set [1] (pH 5.5) is -0.284; in data set [1] (pH 6), -0.704; in data set [1] (pH 6, modulator: ogerin), -0.218; in data set [1] (pH 6.5, modulator: ogerin), -0.248. In addition, in data set [2], the surface expression score was -0.159.
Turning to D85V, the cAMP reporter score in data set [1] (pH 5.5) was -0.854; in data set [1] (pH 6), -1.34; in data set [1] (pH 6, modulator: ogerin), -0.954. In addition, in data set [2], the surface expression score is -2.15.
Turning to D85P, the cAMP reporter score was -1.45 in data set [1] (pH 5.5); -1.24 in data set [1] (pH 6); -1.86 in data set [1] (pH 6, modulator: ogerin); -1.42 in data set [1] (pH 6.5, modulator: ogerin). In addition, the surface expression score in data set [2] was determined as 0.848.
For D85N, in that order: -0.15, 0.052, -0.045, 1.1 and -0.854.
Take D85Q: the cAMP reporter score is -0.345 in data set [1] (pH 5.5); -0.181 in data set [1] (pH 6, modulator: ogerin); 0.574 in data set [1] (pH 6.5, modulator: ogerin). In data set [2], the surface expression score came to 0.652.
Turning to D85W, the cAMP reporter score in data set [1] (pH 5.5) was -0.206; in data set [1] (pH 6), -0.352; in data set [1] (pH 6, modulator: ogerin), -0.364; in data set [1] (pH 6.5, modulator: ogerin) it was -0.232. In addition, the surface expression score in data set [2] was -1.74.
Turning to D85T, the cAMP reporter score in data set [1] (pH 5.5) was -0.386; in data set [1] (pH 6, modulator: ogerin) it was -1.05; in data set [1] (pH 6.5, modulator: ogerin), -0.394. The surface expression score in data set [2] was 0.472.
On to G90del, for which the cAMP reporter score is -0.912 in data set [1] (pH 5.5); -0.754 in data set [1] (pH 6); -1.79 in data set [1] (pH 6, modulator: ogerin); -0.877 in data set [1] (pH 6.5, modulator: ogerin). The surface expression score in data set [2] was -0.161.
For I99V, in that order: 0.912, -0.223, 0.96, -0.052 and -0.065.
Consider I99Y, for which the cAMP reporter score in data set [1] (pH 5.5) was 1.55; in data set [1] (pH 6, modulator: ogerin), -0.912; in data set [1] (pH 6.5, modulator: ogerin) it was -1.09. In addition, the surface expression score in data set [2] worked out at 0.363.
I99M: the cAMP reporter score is -0.468 in data set [1] (pH 5.5); -1.41 in data set [1] (pH 6); -1.18 in data set [1] (pH 6, modulator: ogerin); -0.516 in data set [1] (pH 6.5, modulator: ogerin). For the same variant, the surface expression score in data set [2] is -0.073.
In the case of I99L, the cAMP reporter score is 0.46 in data set [1] (pH 5.5); 1.98 in data set [1] (pH 6); -0.301 in data set [1] (pH 6, modulator: ogerin); -1.17 in data set [1] (pH 6.5, modulator: ogerin). Besides, the surface expression score in data set [2] turned out to be 0.68.
With I99G, the cAMP reporter score in data set [1] (pH 5.5) was -0.447; in data set [1] (pH 6, modulator: ogerin), -0.641.
As for I99P, the cAMP reporter score is -1.74 in data set [1] (pH 5.5); -1.42 in data set [1] (pH 6); -3.67 in data set [1] (pH 6, modulator: ogerin); -0.437 in data set [1] (pH 6.5, modulator: ogerin).
Take I99R: the cAMP reporter score in data set [1] (pH 5.5) was -2.09; in data set [1] (pH 6) it was -1.09; in data set [1] (pH 6, modulator: ogerin), -1.8; in data set [1] (pH 6.5, modulator: ogerin) it was -0.908. Besides, the surface expression score in data set [2] is -1.82.
For I99Q, the cAMP reporter score in data set [1] (pH 5.5) is -1.46; in data set [1] (pH 6), -1.13; in data set [1] (pH 6, modulator: ogerin), -1.34. Besides, in data set [2], the surface expression score is -0.108.
As to I99D, the cAMP reporter score in data set [1] (pH 5.5) is -1.34; in data set [1] (pH 6) it was -0.728; in data set [1] (pH 6, modulator: ogerin), -0.516; in data set [1] (pH 6.5, modulator: ogerin) it was -1.7. In addition, the surface expression score in data set [2] is -2.53.
The matching figures for I99H: -0.179, 0.111, -1.61, -1.04 and -0.806.
On to I99A, for which the cAMP reporter score in data set [1] (pH 5.5) was -1.43; in data set [1] (pH 6), -0.983; in data set [1] (pH 6, modulator: ogerin) it was -0.935; in data set [1] (pH 6.5, modulator: ogerin) it was -0.973. Also, in data set [2], the surface expression score was -1.47.
As for I99K, the cAMP reporter score in data set [1] (pH 5.5) is -1.05; in data set [1] (pH 6) it was -0.223; in data set [1] (pH 6, modulator: ogerin), -1.09. In data set [2], the surface expression score was -1.43.
In the case of I99W, the cAMP reporter score in data set [1] (pH 5.5) was 0.173; in data set [1] (pH 6, modulator: ogerin), -0.674; in data set [1] (pH 6.5, modulator: ogerin) it was -1.22.
As for I99E, the cAMP reporter score is -0.937 in data set [1] (pH 5.5) and -1.18 in data set [1] (pH 6). The surface expression score in data set [2] was -1.23.
Consider I99N, for which the cAMP reporter score in data set [1] (pH 5.5) was -1.59; in data set [1] (pH 6), -1.36; in data set [1] (pH 6, modulator: ogerin), -2.37; in data set [1] (pH 6.5, modulator: ogerin), -0.867. Also, the surface expression score in data set [2] is -1.47.
As to I99T, the cAMP reporter score in data set [1] (pH 5.5) is -0.709; in data set [1] (pH 6), -0.413; in data set [1] (pH 6, modulator: ogerin) it was -1.08; in data set [1] (pH 6.5, modulator: ogerin) it was -1. Further, in data set [2], the surface expression score was -0.239.
The matching figures for V96_C97insGSG: -1.55, -0.656, -1.19, -0.865 and -1.48.
Regarding H89_G90insG, the cAMP reporter score in data set [1] (pH 5.5) is -0.116; in data set [1] (pH 6), 0.006; in data set [1] (pH 6, modulator: ogerin), -0.838.

The values above are taken from the GPR68 mutational scans of Howard et al. (2025).
